# Among all 48,000 compounds or so, about 1,200 (2.5%) were called active. Not shown: some 2% with an inconclusive outcome.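 How the source made its calls: active means activation of at least 60% and not above a set upper limit (about 1 call in 100 departs from these limits); inconclusive means activation of 40% to 60%, or above that upper limit; inactive means activation under 40%.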 Some of the results follow.
# Molecular target: Probable G-protein coupled receptor 32 (Homo sapiens) (UniProt O75388)
# UniProt O75388, sequence (O75388 whole entry, looked up): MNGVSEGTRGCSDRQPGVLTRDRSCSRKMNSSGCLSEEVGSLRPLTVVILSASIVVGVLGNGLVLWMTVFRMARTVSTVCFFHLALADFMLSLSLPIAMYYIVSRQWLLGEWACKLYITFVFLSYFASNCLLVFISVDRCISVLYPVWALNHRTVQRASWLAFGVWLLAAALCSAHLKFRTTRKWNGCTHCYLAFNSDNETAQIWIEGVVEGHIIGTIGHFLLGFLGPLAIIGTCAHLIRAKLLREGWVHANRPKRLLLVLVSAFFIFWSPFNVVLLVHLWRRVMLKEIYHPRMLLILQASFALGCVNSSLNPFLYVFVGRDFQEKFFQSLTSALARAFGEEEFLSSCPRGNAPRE
# Test: qHTS for Agonists of Human Resolvin D1 Receptor DRV1; further: 0% is about no effect
# Conditions: CHO-K1 GPR32 beta-arrestin PathHunter luminescence, 90 min; at 76.9 µM; hits give high values; zero percent set by DMSO-only wells
# Method in brief: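 PathHunter beta-arrestin recruitment in CHO-K1 cells stably expressing ProLink-tagged GPR32. Cells were exposed to compound for 90 min at 37 C, then chemiluminescence was read after 1 h detection at ambient temperature; DMSO served as basal control.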
row,SMILES,activation
1,COc1ccc(CNC(=O)CN(c2cc(C(F)(F)F)ccc2Cl)S(C)(=O)=O)cc1,inactive: 29.5%
2,COc1ccc(C2=NC3(CCCCCC3)N(CC(=O)Nc3ccc(C)c(C)c3)C2=O)cc1,inactive: -8.73%
3,Cc1ccc2ncc(S(=O)(=O)c3ccccc3)c(N3CCCCC3C)c2c1 (configuration not stated),inactive: -29.8%
4,COc1ccc(Cl)cc1NC(=O)Cn1ncc2c3ccccc3n(Cc3ccccc3)c2c1=O,inactive: -8.72%
5,Cc1ccc(C(=O)c2oc3ccccc3c2NC(=O)c2cc(-c3ccc(Cl)cc3)on2)cc1,inactive: 5.99%
6,Cc1ccccc1Nc1sc(C(=O)c2ccc(F)cc2)c(N)c1C(=O)NCCc1ccccc1,inactive: -63.5%
7,O=C(COc1ccccc1Cl)N(Cc1ccco1)Cc1ccco1,inactive: -13.3%
8,Cc1ccccc1C(=O)Oc1cc(-c2ccc3c(c2)OCO3)cc(=O)c2c(C)oc(C)c12,inactive: -12.8%
9,CN(C)c1ccc(NC(=O)CSc2nc(-c3ccco3)cc(C(F)(F)F)n2)cc1,inactive: -2.28%
10,O=C(NCc1ccc(F)cc1)C1CCN(S(=O)(=O)c2ccc3c(c2)CCCN3C(=O)C2CCC2)CC1,inactive: -5.06%
11,CCOc1cc(CNC(=O)c2ccc3c(c2)nc2n3CCCCC2)ccc1OC,inactive: -10.5%
12,O=C(NCc1ccc(F)cc1)c1cnc(N2CCOCC2)c2ccccc12,inactive: -12.1%
13,Cc1cc(C)cc(NC(=O)C2CCCN(c3cnccn3)C2)c1 (configuration not stated),inactive: -3.86%
14,Cc1ccc(Cl)cc1NC(=O)c1cc2c(=O)n3cccc(C)c3nc2n1C,inactive: -4.22%
15,Cc1ccc(S(=O)(=O)c2cnc(SCC(=O)Nc3ccccc3C(F)(F)F)[nH]c2=O)cc1C,inactive: -2.45%
16,CC1CCN(CCCNC(=O)CN2C(=O)CSc3ccc(S(=O)(=O)N4CCC(C)CC4)cc32)CC1,inactive: -14%
17,Cc1ccc(N2CCN(C(=O)c3ccc(Nc4nc5ccccc5n5nnnc45)cc3)CC2)c(C)c1,inactive: -25.3%
18,COc1ccccc1N1CCN(S(=O)(=O)c2c(C)sc3ncn(CC(=O)Nc4ccc(C(C)C)cc4)c(=O)c23)CC1,inactive: -0.0507%
19,COc1ccc(-n2c(=O)c3c4c(sc3n(CC(=O)N3CCCCC3C)c2=O)CCC4)c(OC)c1 (configuration not stated),inactive: -0.439%
20,O=S(=O)(O)c1cc(I)c(O)c2ncccc12,active: 105%
21,COc1ccc(Cl)cc1NC(=O)CSc1nc2c([nH]c3ccccc32)c(=O)n1-c1ccccc1,inactive: -14%

row,SMILES,activation
1,Cc1ccc(S(=O)(=O)N2CCN(Cc3ccccc3)CC2)c(C)c1NS(C)(=O)=O,inactive: 3.67%
2,Cc1cccc(Cn2c(=O)n(CCCCC(=O)NCc3ccc4c(c3)OCO4)c(=O)c3ccccc32)c1,inactive: -17.4%
3,O=C(NC1CCCC1)c1cnn(-c2ccc(F)cc2F)c1C1CCNCC1,inactive: -2.77%
4,CCC(=O)O[C@]1(C(=O)COC)[C@@H](C)C[C@H]2[C@@H]3CCC4=CC(=O)C=C[C@]4(C)C3(F)[C@@H](O)C[C@@]21C (some centres not stated),inactive: 9.17%
5,Cc1ccc(C2=NC(c3ccc(F)cc3)=Nc3ccc(C)cc3N2)cc1,inactive: -7.2%
6,CCSc1nnc2c(n1)OC(c1ccc(OC)cc1OC)N(C(C)=O)c1ccccc1-2 (configuration not stated),inactive: -33.8%
7,COc1ccc(CCNC(=O)Cn2c(=O)n(-c3ccc(OC)c(OC)c3)c(=O)c3ccccc32)cc1OC,inactive: 4.56%
8,COc1ccccc1OCC1CNC(=O)O1 (configuration not stated),inactive: 4.77%
9,CCN(CC)CCNC(=O)CN1C(=O)c2cccnc2Oc2ccc(C)cc21,inactive: -5.37%
10,COc1ccccc1OCCCCn1c(C2CC(=O)N(c3ccccc3Cl)C2)nc2ccccc21 (configuration not stated),inactive: -1.53%
11,Cc1ccc(NC(=O)/C(C#N)=C/c2ccccc2Cl)cc1C,inactive: 37.7%
12,CCN(C(=O)c1sc2cc(OC)ccc2c1Cl)c1ccccc1,inactive: -0.742%
13,Cc1ccc(NC(=O)CN2c3ccccc3S(=O)(=O)c3ccccc32)cc1F,inactive: 28.3%
14,CN(Cc1ccccc1)Cc1c(O)ccc2c(=O)c(-c3ccccc3)c(C(F)(F)F)oc12,inactive: -9.73%
15,CCOC(=O)c1ccc(NC(=O)c2cn(-c3ccccc3)nc2-c2ccc(C)cc2)cc1,inactive: -2.93%
16,Cc1oc2cc3oc(=O)c(CC(=O)N4CCCCC4)c(C)c3cc2c1C,inactive: 0.246%
17,CCCc1ccc(S(=O)(=O)N2CCC(c3nnnn3-c3ccc(OC)cc3)CC2)cc1,inactive: -11.6%
18,CCOc1cc(C#N)c(NC(=O)c2ccc(OC)c(S(=O)(=O)N3CCN(c4ccccc4)CC3)c2)cc1OCC,inactive: -8.66%
19,N#CC1=C2SCN(C3CCCCC3)CN2C(=O)CC1c1ccc(Br)cc1 (configuration not stated),inactive: 31.3%
20,CCCOc1ccc(CNC(=O)c2oc3ccc4c(c3c2C)C(=O)CC(C)(CC)O4)cc1 (configuration not stated),inactive: -12.1%
21,CN1CCOC(c2ccccc2)c2ccccc2C1 (configuration not stated),inactive: 38.2%
